The structures appear in SMILES notation. Where “and” joins values, the source holds several entries; their conditions need not be identical. Equal values may be shown once. Where a name gives a salt, the structure may show the parent alone. ± gives the standard deviation of the averaged measurements. In all, about 2,600 compounds were measured (“MBP+ mature oligodendrocyte number relative to DMSO vehicle control”: median about -0.34, highest 2% from about 13 on). Some of the results follow.
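Note: 10 µM single dose with 3-day oligodendrocyte differentiation.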

In the assay the test system is jimpy (Plp1 jimpy) mouse iPSC-derived oligodendrocyte progenitor cells. Nature of the assay: MBP+ mature oligodendrocyte number relative to DMSO vehicle control (SDs above negative control mean); higher = more surviving jimpy oligodendrocytes (rescue). The note with it: 10 µM; 3 days.
`C[C@@H](c1ncncc1F)[C@](O)(Cn1cncn1)c1ccc(F)cc1F` [Voriconazole]: the “MBP+ mature oligodendrocyte number” value is 1.56 ± 3.4. Next, `C[C@@H]1CC(=O)NN=C1c1ccc(NN=C(C#N)C#N)cc1` [Levosimendan]: -0.332. Consider `NCCOc1cc(C(=O)Nc2cc(OCCN)c3ccccc3n2)nc(C(=O)Nc2cc(OCCN)c3ccccc3n2)c1` [Pyridostatin trifluoroacetate salt], for which the “MBP+ mature oligodendrocyte number” value is -3.78. Take `CO/N=C(\C(=O)N[C@@H]1C(=O)N2C(C(=O)O)=C(CSc3nc(=O)c(O)nn3C)CS[C@H]12)c1csc(N)n1` [Ceftriaxone sodium]: the “MBP+ mature oligodendrocyte number” value was 0.0385. As to `Oc1ccccc1O` [Pyrocatechol], the “MBP+ mature oligodendrocyte number” value is under -3.34. Next, `COc1cc(OC)c2c(=O)[nH]c(-c3cc(C)c(OCCO)c(C)c3)nc2c1`: 3.45; `COc1cccc(NC(=O)/C=C/c2ccc(Cl)cc2)c1`: under -3.85; `FC(F)(F)c1ccccc1-n1ccnc1` [1-[2-(Trifluoromethyl)phenyl]imidazole]: -0.176. With `O=C(c1cccc(Cl)c1F)N1CCN(Cc2cccc(Nc3nccs3)n2)CC1` the figure was 3.62; with `COc1ccc(CCN(C)CCCC(C#N)(c2cc(OC)c(OC)c(OC)c2)C(C)C)cc1OC` (racemic) [(±)-Methoxyverapamil hydrochloride], -1.77. With `CC(C)[C@H]1C(=O)N[C@@H](CCCNC(=N)N)C(=O)NCC(=O)N[C@@H](CC(=O)O)C(=O)N[C@H](Cc2ccccc2)C(=O)N1C` [Cilengitide], the “MBP+ mature oligodendrocyte number” value was 0.153. Next, `Cc1cc2nc(NCCCO)n(CC(=O)c3cc(C(C)(C)C)c(O)c(C(C)(C)C)c3)c2cc1C`: -4. Next, `CC(C)(C)NC[C@H](O)COc1nsnc1N1CCOCC1` [S(-)-Timolol maleate]: -0.176. With `CC(C)(C)NC[C@H](O)COc1nsnc1N1CCOCC1` [Timolol Maleate] the figure was -1.45; with `Cc1ccc(C(=O)Nc2ccc(CN3CCN(C)CC3)c(C(F)(F)F)c2)cc1C#Cc1cnc2cccnn12`, under -5.15; with `O=C(Nc1cccc2c(=O)cc(-c3nnn[nH]3)oc12)c1ccc(OCCCCc2ccccc2)cc1` [Pranlukast], -1.1.

`c1ccc2c(c1)CCC[C@H]2Nc1nc2ccccc2[nH]1` [NS8593 hydrochloride]: the “MBP+ mature oligodendrocyte number” value was -0.125. With `Cn1c(=O)c(-c2c(Cl)cccc2Cl)cc2cnc(Nc3ccc(N4CCOCC4)cc3)nc21` the figure was under -3.85; with `O=C(Nc1c[nH]nc1-c1nc2ccc(CN3CCOCC3)cc2[nH]1)NC1CC1`, under -6.7. For the molecule `CCOC(=O)[C@H](CCc1ccccc1)N[C@H]1CCc2ccccc2N(CC(=O)O)C1=O` [Benazepril HCl], the “MBP+ mature oligodendrocyte number” value came to 2.12.

As for `O=C1CCC(c2ccc(-n3ccnc3)cc2)=NN1` [Imazodan], the “MBP+ mature oligodendrocyte number” value worked out at 0.607.

Turning to `C=CCN1CCc2cc(O)c(O)cc2C(c2ccccc2)C1` (racemic), the “MBP+ mature oligodendrocyte number” value was -0.854.

For the molecule `COC1=C(OC)C(=O)C(CCCCCCCCCCO)=C(C)C1=O` [Idebenone], the “MBP+ mature oligodendrocyte number” value worked out at 11. Next, `Fc1ccc(C(OCCCc2cnc[nH]2)c2ccc(F)cc2)cc1`: 0.696; `NCC(O)c1ccc(O)c(O)c1` (racemic) [(±)-Norepinephrine (+)bitartrate]: -0.394; `NC(CCCP(=O)(O)O)C(=O)O` (racemic) [(±)-2-Amino-5-phosphonopentanoic acid]: -0.747. With `CC(=O)Nc1cccc2c1c(Sc1ccc(Cl)cc1)c(C)n2CC(=O)O` the figure was 4.29; with `CC(COc1ccccc1)N(CCCl)Cc1ccccc1` (stereo not drawn) [Phenoxybenzamine HCl], 4.26. `Nc1ncn([C@@H]2O[C@H](CO)[C@@H](O)[C@H]2O)c(=O)n1` [5-azacytidine]: the “MBP+ mature oligodendrocyte number” value is -1.06. With `Nc1ncn([C@@H]2O[C@H](CO)[C@@H](O)[C@H]2O)c(=O)n1` [Azacitidine] the figure was 0.613; with `CCCNC(C)C(=O)Nc1ccccc1C` (stereo not drawn) [Prilocaine hydrochloride], -0.176; with `CCCNC(C)C(=O)Nc1ccccc1C` (stereo not drawn) [Prilocaine], 0.343. Next, `COc1ccc(CN(CCN(C)C)c2ccccn2)cc1` [Pyrilamine maleate]: -1.19. For the molecule `COc1cc(/C=C/C(=O)N2CCN(CC(=O)N3CCCC3)CC2)cc(OC)c1OC` [Cinepazide maleate], the “MBP+ mature oligodendrocyte number” value worked out at 2.64. With `CCCCCCCCCCCCCCCCCCOP(=O)([O-])OC1CC[N+](C)(C)CC1` [Perifosine] the figure was -0.323.

Take `O=C(Nc1ccc(OC(F)(F)F)cc1)c1sccc1NCc1ccnc2ccccc12`: the “MBP+ mature oligodendrocyte number” value came to 7.18. In the case of `CC(=O)c1ccc(S(=O)(=O)NC(=O)NC2CCCCC2)cc1` [Acetohexamide], the “MBP+ mature oligodendrocyte number” value turned out to be 0.47. With `CCSC(=N)N` [S-Ethylisothiourea hydrobromide] the figure was 0.241; with `CCOC(=O)c1ccc(OC(=O)CCCCCNC(=N)N)cc1` [Gabexate Mesylate], 1.12; with `OC[C@H]1O[C@H]([S-])[C@H](O)[C@@H](O)[C@@H]1O.[Au+]` [Aurothioglucose], -1.73. As for `CC(C)(C)Cn1c(N)nc2ccc(-c3[nH]c(C(C)(C)C)nc3-c3ccc(F)cc3)nc21`, the “MBP+ mature oligodendrocyte number” value is -4.16. Regarding `CCCN[C@H]1CCc2nc(N)sc2C1` [Pramipexole dihydrochloride], the “MBP+ mature oligodendrocyte number” value came to 1.22. Regarding `CCCN[C@H]1CCc2nc(N)sc2C1` [Pramipexole], the “MBP+ mature oligodendrocyte number” value was found to be 1.18. In the case of `CCC(=O)N1CCN(C(=O)c2ccccc2)CC1`, the “MBP+ mature oligodendrocyte number” value is -0.125. With `CNC(=O)c1cc2c(cn1)[nH]c1ccccc12` [N-Methyl-beta-carboline-3-carboxamide] the figure was 2.18; with `Cc1cc(=O)oc2cc(O)ccc12` [4-Methylumbelliferone (4-MU)], 1.79. For the molecule `Cn1c(=O)c2nc[nH]c2n(C)c1=O` [Theophylline], the “MBP+ mature oligodendrocyte number” value turned out to be 0.146. Next, `CCCCCCCCCCCCCCCC(=O)OC[C@H](COP(=O)(O)OCCNC(=O)[C@H](C)NC(=O)CC[C@@H](NC(=O)[C@H](C)NC(=O)[C@@H](C)O[C@H]1[C@H](O)[C@@H](CO)OC(O)[C@@H]1NC(C)=O)C(N)=O)OC(=O)CCCCCCCCCCCCCCC` (stereo partly drawn) [Mifamurtide]: -0.284; `C=C1c2cccc(O)c2C(=O)C2=C(O)[C@]3(O)C(=O)C(C(N)=O)=C(O)[C@@H](N(C)C)[C@@H]3[C@@H](O)[C@H]12` [Methacycline HCl]: 2.24.

`c1ccc(C2CN3CCSC3=N2)cc1` (stereo not drawn) [Tetramisole hydrochloride]: the “MBP+ mature oligodendrocyte number” value was found to be 1.65.

For the molecule `Cc1scc2c1N(C(=O)CN1CCN(C)CC1)c1ccccc1NC2=O` [Telenzepine dihydrochloride], the “MBP+ mature oligodendrocyte number” value came to 0.824.

As for `Cn1c(=O)cc(N2CCC[C@@H](N)C2)n(Cc2cc(F)ccc2C#N)c1=O` [Trelagliptin], the “MBP+ mature oligodendrocyte number” value turned out to be 1.71.

As to `CN(C)CCC(c1ccc(Cl)cc1)c1ccccn1` (single isomer, unassigned; (+)) [(+)-Chlorpheniramine maleate], the “MBP+ mature oligodendrocyte number” value is -1.61. Turning to `O=c1cc(-c2ccc(O)cc2)oc2cc(O)cc(O)c12` [Apigenin], the “MBP+ mature oligodendrocyte number” value is -0.504 ± 2.2. Consider `CO[C@H]1/C=C/O[C@@]2(C)Oc3c(C)c(O)c4c(c3C2=O)C2=NC3(CCN(CC(C)C)CC3)NC2=C(NC(=O)/C(C)=C\C=C\[C@H](C)[C@H](O)[C@@H](C)[C@@H](O)[C@@H](C)[C@H](OC(C)=O)[C@@H]1C)C4=O` [Rifabutin], for which the “MBP+ mature oligodendrocyte number” value was -4.25. Turning to `C[C@@H](N)[C@H]1CC[C@H](C(=O)Nc2ccncc2)CC1`, the “MBP+ mature oligodendrocyte number” value is -2.68 and -2.11. Next, `c1cnc2cc3c(cc2n1)[C@@H]1CNC[C@H]3C1` [Varenicline tartrate]: -0.511; `c1cnc2cc3c(cc2n1)[C@@H]1CNC[C@H]3C1` [Varenicline Tartrate]: 1.33; `CCCCCN(CCCOC)C(=O)C(CCC(=O)O)NC(=O)c1ccc(Cl)c(Cl)c1` (stereo not drawn) [Loxiglumide]: -0.805.

Regarding `O=C(CCCCCCNC(=O)c1cnc(N(c2ccccc2)c2ccccc2)nc1)NO` [Rocilinostat (ACY-1215)], the “MBP+ mature oligodendrocyte number” value was -4.64. As for `O=c1ncccn1[C@@H]1O[C@H](CO)[C@@H](O)[C@H]1O` [Zebularine], the “MBP+ mature oligodendrocyte number” value was found to be 1.67. For `CN(C)CCN(Cc1cccs1)c1ccccn1` [Methapyrilene hydrochloride], the “MBP+ mature oligodendrocyte number” value came to 0.382.

As to `NC(CO)(CO)CO` [Trometamol], the “MBP+ mature oligodendrocyte number” value is 1.5. Next, `COc1ccccc1CNC1CCCNC1c1ccccc1` (stereo not drawn): -1.71; `Clc1ccc(C(Cn2ccnc2)OCc2c(Cl)cccc2Cl)c(Cl)c1` (stereo not drawn) [Isoconazole nitrate]: 22.9; `CCOC(=O)C1=C(C)NC(C)=C(C(=O)OCC)C1c1c(F)c(F)c(F)c(F)c1F` [Nemadipine-A]: 2.34.

As for `CC(C)n1nc(-c2cc3cc(O)ccc3[nH]2)c2c(N)ncnc21`, the “MBP+ mature oligodendrocyte number” value was under -4.81. Next, `NC(=O)N1c2ccccc2C=Cc2ccccc21` [Carbamazepine]: 1.4 ± 1.3. Next, `CCc1cccc(N(C)C(=N)Nc2cccc3ccccc23)c1`: -2.04; `CC[C@H]1OC(=O)[C@H](C)[C@@H](O[C@H]2C[C@@](C)(OC)[C@@H](O)[C@H](C)O2)[C@H](C)[C@@H](O[C@@H]2O[C@H](C)C[C@H](N(C)C)[C@H]2O)[C@](C)(O)C[C@@H](C)/C(=N\OCOCCOC)[C@H](C)[C@@H](O)[C@]1(C)O` [Roxithromycin]: -1.56; `O=C1NC(=O)[C@@]2(CCOc3ccc(F)cc32)N1` [Sorbinil]: 1.77. As to `C=C1CC[C@H](O)C/C1=C/C=C1\CCC[C@]2(C)[C@@H]([C@H](C)CCCC(C)(C)O)CC[C@@H]12` [Calcifediol], the “MBP+ mature oligodendrocyte number” value worked out at 3.34.

On to `CC(C)CC(=O)Nc1n[nH]c2c1CN(C(=O)C1CCN(C)CC1)C2(C)C`, for which the “MBP+ mature oligodendrocyte number” value is under -5.15. With `O=C(NCCS(=O)(=O)c1ccc(C(F)(F)F)cn1)c1ccc(Cl)cc1` the figure was 3.27; with `CC(N)=O` [Acetamide], 0.902. As to `CN1CC[C@H](c2c(O)cc(O)c3c(=O)cc(-c4ccccc4Cl)oc23)[C@H](O)C1` [Flavopiridol HCl], the “MBP+ mature oligodendrocyte number” value was under -6.01. For the molecule `COc1ccc(-c2cc(=O)c3c(O)cc(O)cc3o2)cc1O` [Diosmetin], the “MBP+ mature oligodendrocyte number” value is -1.95. `Nc1nc(Cl)nc2c1ncn2[C@@H]1O[C@H](CO)[C@@H](O)[C@@H]1F` [Clofarabine]: the “MBP+ mature oligodendrocyte number” value was under -6.7.

For the origin of these results see the supplement of paper PMC6135742.
